Source: the supplement of paper PMC6531468
The other results are listed elsewhere or left out. Read counts after selection give these values, which scatter widely. Scores sum up all selected molecules that hold the word; the word was not tested alone.

Biological target: IMP3 full-length (UniProt O00425)
Assay: 6-mer SELEX enrichment z-score vs GST control; IMP3 is the RNA-binding protein IGF2BP3; higher = more enriched by binding
Settings: construct: FL IMP3 (1-579); SELEX round: R4
Method: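 SELEX-seq with GST-tagged full-length IMP3 and an N40 RNA pool, round 4. Each 6-mer is scored as an enrichment z-score of sequence tags containing it, normalised to the matching GST SELEX round. RNA written as DNA (T = U).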

Chain of UniProt O00425 (O00425 whole entry): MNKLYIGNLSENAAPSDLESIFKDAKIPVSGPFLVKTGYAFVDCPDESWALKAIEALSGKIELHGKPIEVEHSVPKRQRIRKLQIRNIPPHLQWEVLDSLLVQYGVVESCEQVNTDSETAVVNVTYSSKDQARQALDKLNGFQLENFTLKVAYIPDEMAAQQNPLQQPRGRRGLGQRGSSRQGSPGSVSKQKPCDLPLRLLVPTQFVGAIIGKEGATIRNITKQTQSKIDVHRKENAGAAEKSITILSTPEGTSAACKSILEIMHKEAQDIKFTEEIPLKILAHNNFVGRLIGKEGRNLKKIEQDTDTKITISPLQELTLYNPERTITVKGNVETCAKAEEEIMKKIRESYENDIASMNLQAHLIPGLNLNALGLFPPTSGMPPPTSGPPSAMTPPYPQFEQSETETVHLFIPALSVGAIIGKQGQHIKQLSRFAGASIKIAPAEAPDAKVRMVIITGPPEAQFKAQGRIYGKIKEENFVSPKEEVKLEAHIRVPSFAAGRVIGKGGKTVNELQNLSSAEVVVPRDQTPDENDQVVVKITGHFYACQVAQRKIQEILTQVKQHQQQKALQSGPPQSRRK

| Sequence | 6-mer SELEX enrichment z-score |
| --- | --- |
| GCCTAA | -0.906 |
| CCTGCA | -0.075 |
| TGCCGT | -0.09 |
| TTGGTC | 0.279 |
| CGTCTA | -0.01 |
| TAAATG | -0.637 |
| CTCCTA | -0.262 |
| AGTGCG | 0.222 |
| GCAGCA | 2.09 |
| TCCGCT | 0.247 |
| GTTCTC | 0.077 |
| TTAGTG | -0.044 |
| AGAGTG | -0.865 |
| CGGACT | -0.252 |
| TCTCAT | 0.941 |
| AGTGGC | 0.91 |
| TGCGAT | -0.095 |
| CGATTC | -0.123 |
| CTTCGA | -0.666 |
| CCTATC | -0.304 |

| Sequence | 6-mer SELEX enrichment z-score |
| --- | --- |
| GTGCAT | 0.781 |
| CCGTGC | -0.18 |
| ACAACA | 3.17 |
| AGACTG | -0.619 |
| CAACTT | 0.066 |
| GCTCAA | 0.016 |
| AGTTGG | 0.25 |
| GGCGGA | 0.413 |
| ATAGCT | 0.15 |
| TAGACC | -0.984 |
| TCCGCG | -0.167 |
| GTACCA | -0.111 |
| GACGTC | 0.013 |
| ATTGTC | 0.28 |
| AAGAAT | -0.68 |
| TCCACC | -0.583 |
| TCCGGT | 0.19 |
| TCCCTT | -0.181 |
| AACGTC | -0.363 |
| AGCAGC | 1.14 |
